The list shows a part of the results.
Tested on: PF3D7_0420300 AP2 domain 1 (GST-tagged)
Experiment: gcPBM binding intensity (ln(normalized median fluorescence intensity)); higher = stronger DNA binding
How it was run: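 Binding intensity is defined as the maximum Masliner-normalised natural-log median intensity across replicate spots for either probe orientation. It was measured on an Agilent 4 × 180k array of primer-extended double-stranded 36-bp intergenic genomic probes and negative controls, to which GST-tagged P. falciparum DNA-binding domains made in E. coli were applied for 1 h in 1× PBS with 1% milk, 0.2 mg/ml BSA, 0.5% salmon testes DNA and 0.03% Triton X-100. Detection was by Alexa488 anti-GST antibody and scanning at 488 nm.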

Sequence	gcPBM binding intensity (ln)
ATATATATATATGAATCACACACAAAAAATATAGAG [CACACA_site9298]	9.95
ATAAAATAATGAAAAACACACATTTTTATTTGTATA [CACACA_site3369]	9.36
AATAACATGTTATATACACACATTATGAAGTCTTCA [CACACA_site746]	9.41
AAGATTATAAATATATGTACATAAATATATTATATA [XGTACX_site8056]	9.06
ATTGTTTTTTTTTCTTTGTGGAATGAATGAATATAT [XGTACX_negctrl_site603]	9.42
TATATATATAAACACACACACATATATATATATATA [CACACA_site4584]	9.72
TTTAAAATACAGAAGGTGCATTTAACATATTTGTAT	9.25
AAAAAAAAAAAATGCACACATATATTTCCATATACA [CACACA_site1471]	9.39
ATATATATATATATATGTACTAATTAATATTTCGAG [XGTACX_site580]	9.14
GTATATCATATTTCATGTACACAAAAAAATAAAAAT [XGTACX_site704]	9.29
ACAAAATTTACAAAATGTACAAAATTTACAAAGTAT [XGTACX_site6463]	9.23
TATATATATTATATATGTACATATTATATATATATA [XGTACX_site7300]	9.07
ATATATTTGATAAGAGTGCACAAATACATACATACA [GTGCAC_site9704]	9.54
TATACATACCATAATGCATGTAAGAACAAATAACTG [TGCATGCA_site264]	9.23
AAAAAAAAAAAAAAGGTGCATACTTTGAATTAATAT [GTGCAC_site9401]	9.2
ATGACTCTCAAGTTTGCACACATTTATATTTTTTAA [CACACA_site2605]	9.54
AAAGTATTCTTTACACGTACATATATATAAATATAA [XGTACX_site7557]	8.99
AATATAAATAATATATGTACATATATATATATATAT [XGTACX_site1021]	9.22
AGAATTGTTGTTAAAGAATTCTTTTTTATCCTTCCC [CACACA_negctrl_site1820]	8.89

Sequence	gcPBM binding intensity (ln)
TTTGTATATATTAATGTACACACATGCGTATGTTCG [CACACA_site9193]	9.55
AATATAGATATAAAAAGTACATTATATATATATATA [XGTACX_site6899]	9.33
GTTAAATAATATATATGTACATACATAAGTGTTACT [XGTACX_site4778]	9.28
ATTTCCTTTTGTTTCAGTACATAATTTTTTTTTTTT [XGTACX_site4842]	9.54
TTGCCCATTTAATTAACACACAAATATTTATATTCT [CACACA_site738]	9.53
GATATTCATAGAAACACACATACAAATTATGTATAT [CACACA_site144]	9.35
TAATTGTACGCCAATACACACAGAATTAAAATGTAG [CACACA_site4234]	9.58
TTTTTAAAGTTTTATACACACACCAAAATTATTCTA [CACACA_site600]	9.47
TATGTGCACCCATGTACATGCGGACATATGTTATAT [TGCATGCA_site383]	9.05
TATGTATATATATATATATATATATATATATATATA [TGCATGCA_negctrl_site491]	8.78
ATGGCCACTGTGAAATGTACAAAAAAAAAATACAAT [XGTACX_site2874]	9.4
CATACAAATTAATATGTACACACAAATATATATATA [CACACA_site8605]	9.61
AGTAGTCTGGAGAAAAGTACATAGTATCTGGTAACC [XGTACX_site2024]	9.29
TTTTACAATAATAAGTAGATCTAAATAAAGATTTAA [GTGCAC_negctrl_site547]	8.96
TTTATATTATTTAATGAGAAATAATTATAAACAATT [TGCATGCA_negctrl_site65]	8.8
TTCCAAAATTGCACATGTACAAAATTCTCCAATATG [XGTACX_site3419]	9.09
TTTTTTTTTTTTTTTTGTACATATTTTAATTTGTTT [XGTACX_site6297]	8.75
AAAAAAAAAAAATAATGTACATATGTATTTGAGAAA [XGTACX_site3572]	9.23
AGTATAATAATATTTACACACGCATATGTTATATAT [CACACA_site1476]	9.57

Sequence	gcPBM binding intensity (ln)
ATTTAAAAAAAAAAAACACACATGTGAATAGAAAAG [CACACA_site3323]	9.38
TACTGCCTTCCATACCCACACACTTCCCATATATTT [CACACA_site2705]	9.94
AAAACGCTACATAATTGTACATGTAGAAATAAAAGC [XGTACX_site2895]	9.51
TCTAAAAATAAGAACACACACATATAAGCATATAAA [CACACA_site2274]	9.78
ATATATTATATATATTGTACATGTAAAATTTTAAAA [XGTACX_site7197]	9.13
TATGTATTTAAATTAACACACATATGTGGTTAATAG [CACACA_site5697]	9.25
AAAAATTTGGCATACACACACACACCCACACCCACA [CACACA_site587]	10.2
ACATATATATATATATATATATATATATCATTATGT [CACACA_negctrl_site724]	9.11
ACTCTTGATCTGAATGCACACAATAAATTATATAAA [CACACA_site1438]	9.37
ATAAATATAATAATCATACACACCAAAGAGAATATT [CACACA_site1888]	9.79
AAAGTTATTATGCAATAATTATGATAATTAATATAT [TGCATGCA_negctrl_site316]	9.17
ATGACTTACATATATAGTACTTTGTTTTGGAGTTGC [XGTACX_site94]	9.25
TATGAGGAAACGTGGTGTACTTTTTTTTAATAAAAA [XGTACX_site1351]	8.91
ATATTTAAATAATATTCACACACAAAATTATATTTT [CACACA_site7955]	9.42
CATATAAAAATATATGCACACAAATAAAAAATTATA [CACACA_site9210]	9.47
ATTTCTCAATCGTAATGTACAAAAAAAAGGGAAAAG [XGTACX_site2781]	9.27
ACAAACAAAGAAAGAACACACATACACAATATACCT [CACACA_site5566]	9.95
ATTAAAAAGACAAAAAAAAAATTTTTTTTTTTTTTT [CACACA_negctrl_site1027]	9.07

Reference: the supplement of paper PMC11417369
